The values that follow come from patent publication US20160159914A1 (Amgen, published 2016).

This assay concerns the target T1, IL-17RE-FC (Amgen) (UniProt Q8NFR9 176-451).
T1 construct: Amgen material; also called IL-17RE-FC (176-451); not shown: Fc region
T1 sequence (looked up): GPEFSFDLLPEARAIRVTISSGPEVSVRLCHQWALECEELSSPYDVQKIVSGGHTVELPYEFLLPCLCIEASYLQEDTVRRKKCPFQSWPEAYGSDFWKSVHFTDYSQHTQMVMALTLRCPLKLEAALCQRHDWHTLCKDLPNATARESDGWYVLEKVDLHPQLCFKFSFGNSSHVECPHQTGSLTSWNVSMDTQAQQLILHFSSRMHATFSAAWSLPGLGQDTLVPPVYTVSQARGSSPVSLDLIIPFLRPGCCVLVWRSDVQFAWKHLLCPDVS
Briefly: AlphaScreen, His-tagged ligand with Fc-tagged receptor (nickel chelate donor beads, Protein A acceptor beads). As to the method:
IL-17 family ligands and receptors were tested in pair wise combinations by Alphalisa™ in Perkin-Elmer's immunoassay buffer. Ligands were tagged with a hexa-histidine tag and receptors were tagged with a FC region.
Reagents: OptiPlate-384™, White Opaque 384-well MicroPlate; Perkin Elmer; Catalog #6007299; AlphaScreen™ Protein A Acceptor beads, 5 mg; Perkin Elmer; Catalog #6760137M; AlphaScreen® Nickel Chelate Donor beads 5 mg; Perkin Elmer; Catalog# AS101M; IL-17C-His-Avi (Amgen); IL-17A-His (Amgen); IL-17RE-FC (Amgen); and IL-17RA-FC (R&D Systems) Catalog#177-IR.
AlphaScreen™ protocol: Ligand and receptor dilutions were made in Perkin-Elmer ImmunoAssay Buffer. IL-17 ligands were diluted to a concentration range of 0.5 to 50 nM. IL-17 receptors were diluted to a concentration range of 0 to 300 nM. Donor and acceptor beads were held constant at 20 ug/mL. 2.5 ul of ligand was added to the 384 well OptiPlate™. 2.5 ul of receptor was added to the 384 well OptiPlate™. 5 uL of donor and acceptor beads were added to the 384 well OptiPlate™. The plate was sealed with adhesive according to manufacturer's protocol. The plate was incubated at room temperature for 3 hours and protected from ambient light. The plate was read using the 384 AlphaScreen Protocol on Envision Plate Reader (Perkin Elmer).
(In Alpha technology, singlet oxygen from a donor bead excites a nearby acceptor bead.)

B1: IL-17A-His (Amgen) (ligand)
chain: not shown
notes: not shown: hexa-histidine tag
Turning to B1, the binding result was “no binding”.
